# Measurements as given in the supplement of paper PMC12632987.
# Whole data set: some 2,300 sequences, median “median log2 fold change of GCK-ALFA target abundance (FLAG IP / Myc IP barcode read proportion)” near 0.095, cut for the lowest 2% near -0.47. Some of the results follow.
# B1: LC3A_free_8_2501 (protein)
# chain: KSQEVVKEALEGLDKLEEELIKKAKELGLSELDILELELEIGSVKAEIISLSDKSPEEIVKETKEGLERVIELAKELSEELAKLAKELSEEILKRLEKLL
# B2: LC3A_28_871 (protein)
# chain: SHIEEQVEKIKKELEEQAKKGEDAVVEVEITESMSLEEAVELMNKVLEVAKEYVEKTGLKVSIVINYDGDQETLDAIADLAEKAEKENPKITVIIALPEE
# B3: LC3A_free_46_2349 (protein)
# chain: VKAEILIDLLAKDEETLKKAVEEIIKAAKEIAKKYNLEIKIETEISKLEDGSYYAEIKITLKGKNKEDVEKAVNELINKIEEIAKKYNVSAVISYEIKDV
# B4: LC3A_147_431 (protein)
# chain: YITTVDIDVLTKDAEEEVIKAAKEIEEELKAKGYEVELEIEVEELENGEKYIHIKITVKTETEEEAKEAADYIVDKFEELEEKLKDKILGSIISVEIEEA
# B5: LC3A_3_1373 (protein)
# chain: MEEKIKELLEFLKEKGKSEETLEAVRKALEALAEKGYEEAAETFIELMKELEDVPDELLLYFAEDVLEAVTEEDLSEEELIEFIKEEASVVRNESEIIEL
# B6: LC3A_3_1617 (protein)
# chain: LEELLKKALEALKEAGKSEETLKLVEEVVKLLLEKGYEEAARTFLELLIENKDLPEEILRDFVEEVKRLVEEEDLSEEELTKRIKEIAEIARNESEIEEL
# B7: LC3A_3_1853 (protein)
# chain: MEEIIKEIEKLLKELGRSEETIEAALKLAEALAKRGYENALKELLKKLKELKDLPDEILLDMFEDILAAVETKDLSEEETIKLINEEAETAKNEAEIEEL
# B8: LC3A_3_1620 (protein)
# chain: MEEEVKETLEELKKAGASEETLEAFRETAELLMEKGYYEALKTLIEEMRKIKDLPNEIILDALEEVKEVIETEDLNEEELIEEIKNIFRTARNEGEIIEL
# B9: LC3A_3_1394 (protein)
# chain: FEEIRKETIKTLKEFGKSEEVIKAAEKVLDALEKRGYEEAAKTLLEELKEMKDLSDELLLDFLNDVLDYLETNDDNEEEVIKFIKEEARIAKNEGEIEEL
# B10: LC3A_free_46_2398 (protein)
# chain: YKAIIDVDVYGLTEEQAEEFIKRVKEEAEKISKKYGVKVEIEVEVEKNPDGTYYVRITITITGEDKETVEKAATELIDGLEKIAEELGAAMIISEEFIDE
# B11: LC3A_45_1950 (protein)
# chain: MWEATVDVLVPREEFEKALEVLREMAERLERELGVEVEIDEEAVEEARKEAEENGEALITVRVRHEDEQVALDAADRIADELEERLSPSVAVIISVEKVP
# B12: LC3A_36_1337 (protein)
# chain: MVVIVLSAASEEVRAAEEAHYRAKGATVFAVAVEDLDEATKEEILAVVKAAGPDADIIIVAVAETEEGLAKVLKKASELADYIEEETGRTVIIEVDLVEK
# B13: LC3A_free_46_2433 (protein)
# chain: YLVEIDIDLLHEDEEVLKKAVEEIVEAIKEIAEKYNGEVEIEVSFSKDEDGSYFAEIKAKIKVETKEKAEEVANELIDKIDEIAEKYDVSYIISVDIEEL
# B14: LC3A_3_1418 (protein)
# chain: MEEERAALLEELRAAGHSDETLAAVRALLDLLLARGAEEEARRVIELFREAKDLSSERLLEVAEEVRAALEAGEITPEEAVELAKELLSIARSEEEIEEL
# B15: LC3A_free_39_2286 (protein)
# chain: SAAELAAAVARLAALLDEIPGLSAEERATILDAARRDLATARAILDALEELREAGGDVGAAAREIAAKIRELEAAGASDEEITAEVIELARDLVNLIPID
# B16: LC3A_3_1871 (protein)
# chain: MAAVEARILALLRARGRSPETIAAARELLAALRARGYEEAARVLLAELEELADLPDELLLAMFEDLLRRVTEEDLDEEEAIEAIREEARTARNEAEIEEL
# B17: LC3A_147_423 (protein)
# chain: YRVVVEAYFLVKKDGEEAKEAIRELAERLREEGAKRVEIEEEEDEEDGTILIKVTIEAERETLEEAQAFADRVIDDFEELEEKHKDTLKLGAISVEIEKA
# B18: LC3A_28_1298 (protein)
# chain: SPLREELEKVLKEAKEAAAKGEATVFTLKVTADADEEDIDYVIETMEEIAELLKDVPGSAIIVDVEAGVPQEHIDRLADKAEEIEKKYPNVTVIIALEEE
# B19: LC3A_free_46_2364 (protein)
# chain: MEIDIDLLAKGKSEEEVEKIAKEIEEEIKKAAKEHGVEVEIETEIEKLEDGDYFINIKIKAKAETKEKAQAFEQAVIDIIEEFSLKYNLAAIISITEVEP
# B20: LC3A_free_26_2155 (protein)
# chain: EEFVDLGALDKALDLLDEIKKLLKEHAEKLPEALALVEQAREQLDKLTLEAFEAALALLDQAKKLVEAEKSLPEELKEKLLKLLDEARAHVQEIIEVMKS
# B21: LC3A_28_1072 (protein)
# chain: SSVEEEIEKAKKEAEEARKKGEPVVVTVEFKETDTDEDIEKKIETVKEIGEILKDVPDAAIVVSLDGENAKKYLDEIAKVGEEIEEKYPNITVIIALSEE
# B22: LC3A_28_839 (protein)
# chain: SKIDEEIEKALKKAKEAAEKGESEVITINVFGGATEEEIEKVIEALEEIAEILKDIKDQAIIINLEEPIKEEHLNKLIDKAEEIEKKYPNITVIIALPED
# B23: LC3A_28_1214 (protein)
# chain: SATDAAIADAKAQFAAAIASGEPTTIVVKIPKTVTLEGAKAIMDAIEAEVEKAKDLKGLSIVIDVEEGVSQEVINLIADRADEIEKKYPNVTVIIALEEE
# B24: LC3A_free_46_2392 (protein)
# chain: IEGEIDLLLEGATEEQVKELAEAAEKKIRELAKEKGINVEIEVEIEKLEDGSYYVRIKVKSDSKDKNTVLDILDETEEYLEEKAKELGVKLSSIISVKES
# B25: LC3A_28_1229 (protein)
# chain: SPVDEQIAAAKAEAEQAKAEGESRVITIKVSGETTLEEAEKIAEAMEEIAEMLKDLPHQTILIDVERGVSQEVLDLLAEAAERIEKKYPNVTVIIALEEE
# B26: LC3A_3_1548 (protein)
# chain: MEELIKETLEALRKAGKSEEVLKAAKETFEALKKKGYENALKTFAEEAKELLHLPDELLLDFFEEVLEVIETEDLNEEELIERIKEIARTTRNEGEIIEL
# B27: LC3A_45_1991 (protein)
# chain: MAKATIDILVPRELLEEALAVIEESAEEIKKEEGDEVKIDLEKLRESAEATKDEEEVYLVLEIYHPDKEKALDIADSIVDRLHEKLGDRVAAIISVEELP
# B28: LC3A_3_1375 (protein)
# chain: SEELIEETLAYLREKGKSEETLEAVRRAMEALAEKGYEEALKTFAELLKEMEDLPDEILLDFAEDVLEAVENEDLNEEELIEFIKEEARVARSEGEIIEL
# B29: LC3A_free_46_2380 (protein)
# chain: YKINIDVDFGAMDKETAEKMAKEIKEAAKKIAKKTGVEIKVDVKIITDEEGETYLEVNITITGEDKEKVEAAANELLKEIDKIADKAGVSYIISVDFEDT
# Target: MAP1LC3A, Q9H492
# Experiment: median log2 fold change of GCK-ALFA target abundance (FLAG IP / Myc IP barcode read proportion) (log2 ratio); each designed protein is fused to an ALFA-tag nanobody in HEK293 cells to bring the named protein to FLAG-tagged glucokinase (GCK); Myc marks an untargeted standard; higher = target protein stabilised (more abundant)
# Settings: target protein: 3xFLAG-MCP-GCK-ALFA reporter; HEK293 landing pad (RPLP)
# Procedure, shortened: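 Binders fused to an ALFA nanobody were recombined as a library into HEK293 landing-pad cells, which were induced with 2 μg mL^−1 doxycycline and then transfected to express a FLAG-tagged target and a Myc-tagged standard. After 48 h, circular RNA barcodes recovered by anti-FLAG and anti-Myc immunoprecipitation of lysates were reverse transcribed, amplified and sequenced. Each binder's target abundance is the median log2 ratio of FLAG to Myc barcode read proportions, from barcodes present at ≥10^−7 in both replicates, binders carrying ≥3 barcodes per replicate, a 10^−6 pseudocount and pooled replicates.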
row,Binder,median log2 fold change
1,B1,0.00892
2,B2,-0.463
3,B3,0.257
4,B4,0.117
5,B5,-0.201
6,B6,0.468
7,B7,0.119
8,B8,-0.0392
9,B9,0.351
10,B10,-0.116
11,B11,0.0029
12,B12,0.15
13,B13,0.126
14,B14,0.208
15,B15,0.187
16,B16,0.0802
17,B17,-0.164
18,B18,0.226
19,B19,-0.127
20,B20,0.117
21,B21,0.165
22,B22,0.00879
23,B23,0.367
24,B24,0.108
25,B25,0.178
26,B26,0.187
27,B27,0.091
28,B28,0.306
29,B29,-0.0183
